From the antibiotic and cytotoxicity screens of Wong et al. (2023) come the findings set out here.

One test has as its system HSkMC. Put plainly: cytotoxicity call (relative viability < 0.9). The conditions noted are these: 10 µM.
The next test concerns S. aureus RN4220. Put plainly: growth inhibition call (relative growth <= 0.2). The conditions noted are these: 50 µM.

The list shows a part of the results.

Turning to `C[C@@H]1CN([C@H](C)CO)C(=O)CCCn2cc(nn2)CO[C@H]1CN(C)Cc1cccc2c1OCCCO2`, the cytotoxicity call in the test with HSkMC was “inactive”. Further, the growth inhibition call with S. aureus RN4220 is “inactive”.

Take `C=C[C@](C)(O)CCC[C@H](C)CCC[C@H](C)CCCC(C)C`: the cytotoxicity call in the test on HSkMC was “inactive”. The growth inhibition call with S. aureus RN4220 was “inactive”.

On to `O=C1NCCC[C@@H]1C(=O)N1CCCCC1`, for which, in the test on HSkMC, the cytotoxicity call was “inactive”. In addition, the growth inhibition call in the test with S. aureus RN4220 is “inactive”.

Regarding `CCCNC(=O)Nc1ccc2c(c1)C(=O)N(C)C[C@@H](OC)[C@@H](C)CN(Cc1ccc(-c3ccccn3)cc1)[C@@H](C)CO2`, the cytotoxicity call in the test with HSkMC is “inactive”. The growth inhibition call in the test with S. aureus RN4220 was “inactive”.

In the case of `COc1ccc(S(=O)(=O)N(C)C[C@H]2OCc3cn(nn3)CCCC(=O)N([C@H](C)CO)C[C@H]2C)cc1`, the cytotoxicity call with HSkMC is “inactive”. Further, in the test with S. aureus RN4220, the growth inhibition call was “inactive”.

In the case of `Cc1ccc(S(=O)(=O)Nc2ccc3c(c2)C(=O)N([C@@H](C)CO)C[C@H](C)[C@H](CN(C)Cc2ccc4c(c2)OCO4)OCCCC[C@H](C)O3)cc1`, the cytotoxicity call in the test on HSkMC is “inactive”. In addition, in the test with S. aureus RN4220, the growth inhibition call was “inactive”.

`C[C@H]1CN([C@@H](C)CO)S(=O)(=O)c2ccc(C#Cc3ccc(F)cc3)cc2O[C@H]1CN(C)S(=O)(=O)c1cn(C)cn1`: the cytotoxicity call with HSkMC is “inactive”. In the test on S. aureus RN4220, the growth inhibition call was “inactive”.

For `C[C@H](CO)N1C[C@H](C)[C@@H](CN(C)C(=O)Nc2ccc(F)cc2)OCCCC[C@H](C)Oc2ccc(NC(=O)C3CCCCC3)cc2C1=O`, in the test with HSkMC, the cytotoxicity call was “inactive”. Further, in the test on S. aureus RN4220, the growth inhibition call is “inactive”.

Consider `C[C@@H]1CN([C@@H](C)CO)C(=O)c2cc(NC(=O)NC3CCCCC3)ccc2O[C@@H](C)CCCCO[C@H]1CN(C)Cc1ccccc1`, for which the cytotoxicity call in the test with HSkMC was “inactive”. Also, the growth inhibition call in the test with S. aureus RN4220 is “inactive”.

In the case of `N#CCC(=O)N1CCSCC1`, the cytotoxicity call in the test on HSkMC was “inactive”. In the test with S. aureus RN4220, the growth inhibition call was “inactive”.

Take `C[C@H](CO)N1C[C@H](C)[C@@H](CN(C)Cc2ccc(C(F)(F)F)cc2)OCCCC[C@H](C)Oc2ccc(NC(=O)C3CCCCC3)cc2C1=O`: in the test on HSkMC, the cytotoxicity call was “inactive”. Moreover, the growth inhibition call with S. aureus RN4220 was “inactive”.

In the case of `CCSC1=C(C#N)C(=O)N[C@@H](CO)S1`, in the test on HSkMC, the cytotoxicity call is “inactive”. Moreover, the growth inhibition call with S. aureus RN4220 is “inactive”.

Regarding `C[C@H]1CN([C@@H](C)CO)C(=O)c2cc(NC(=O)Nc3ccc(F)cc3)ccc2O[C@H]1CN(C)C(=O)Nc1cccc2ccccc12`, the cytotoxicity call with HSkMC was “inactive”. Further, in the test with S. aureus RN4220, the growth inhibition call is “inactive”.

In the case of `O=C1CCNCCN1`, in the test on HSkMC, the cytotoxicity call was “inactive”. For the same molecule, the growth inhibition call in the test on S. aureus RN4220 was “inactive”.

Consider `C[C@@H]1CN([C@H](C)CO)C(=O)c2cc(NC(=O)c3ccccc3)ccc2O[C@@H](C)CCCCO[C@@H]1CN(C)Cc1ccc(C(F)(F)F)cc1`, for which the cytotoxicity call with HSkMC is “inactive”. In the test with S. aureus RN4220, the growth inhibition call was “inactive”.

Take `C[C@@H]1CCCCO[C@@H](CN(C)Cc2ccccc2)[C@H](C)CN([C@@H](C)CO)C(=O)c2cc(NC(=O)NC3CCCCC3)ccc2O1`: the cytotoxicity call in the test on HSkMC is “inactive”. The growth inhibition call with S. aureus RN4220 is “inactive”.

For the molecule `CCOC(=O)c1cccc(N)c1.CS(=O)(=O)O`, the cytotoxicity call in the test with HSkMC was “inactive”. Also, the growth inhibition call with S. aureus RN4220 is “inactive”.

In the case of `C[C@H]1CN([C@@H](C)CO)C(=O)c2cc(NC(=O)CCCCCC(=O)Nc3ccccc3N)ccc2O[C@H]1CN(C)Cc1ccc(Oc2ccccc2)cc1`, the cytotoxicity call in the test on HSkMC was “inactive”. Further, the growth inhibition call with S. aureus RN4220 is “inactive”.

Take `Cc1ccc(S(=O)(=O)N(C)C[C@@H]2Oc3ccc(NC(=O)Nc4ccc(C(F)(F)F)cc4)cc3C(=O)N([C@H](C)CO)C[C@H]2C)cc1`: the cytotoxicity call with HSkMC is “inactive”. Also, the growth inhibition call with S. aureus RN4220 was “inactive”.

As to `C[C@@H]1CN([C@@H](C)CO)C(=O)c2cc(C#CCN(C)C)cnc2O[C@H]1CN(C)C(=O)c1ccc2c(c1)OCO2`, the cytotoxicity call in the test with HSkMC is “inactive”. In addition, the growth inhibition call in the test with S. aureus RN4220 was “inactive”.

Turning to `Cc1cc(C(=O)Nc2cccc3c2O[C@H](CN(C)Cc2ccc(C(=O)O)cc2)[C@H](C)CN([C@H](C)CO)C3=O)n(C)n1`, the cytotoxicity call with HSkMC is “inactive”. Besides, the growth inhibition call in the test with S. aureus RN4220 is “inactive”.

Turning to `C[C@@H]1CN([C@H](C)CO)C(=O)Cc2cc(NC(=O)Nc3ccccc3)ccc2O[C@@H]1CN(C)S(=O)(=O)c1cn(C)cn1`, in the test with HSkMC, the cytotoxicity call was “inactive”. In addition, in the test with S. aureus RN4220, the growth inhibition call is “inactive”.

Regarding `Cc1noc(C)c1S(=O)(=O)N(C)C[C@H]1Oc2ccc(NC(=O)c3ccncc3)cc2CC(=O)N([C@H](C)CO)C[C@@H]1C`, the cytotoxicity call with HSkMC is “inactive”. The growth inhibition call in the test with S. aureus RN4220 was “inactive”.

Consider `O=C(C=Cc1ccc(O)c(O)c1)OC1CC(O)(C(=O)O)CC(O)C1O` (stereo not given), for which the cytotoxicity call in the test on HSkMC was “inactive”. Moreover, the growth inhibition call in the test with S. aureus RN4220 was “inactive”.

As for `C[C@H]1CN([C@@H](C)CO)C(=O)c2cc(NC(=O)Nc3cccc4ccccc34)ccc2O[C@H]1CN(C)S(=O)(=O)c1cccs1`, the cytotoxicity call in the test on HSkMC is “inactive”. The growth inhibition call with S. aureus RN4220 is “inactive”.

Take `N=C(N)N/N=C1\CCc2c(C(=N)N)cccc21`: the cytotoxicity call in the test on HSkMC (human skeletal muscle cells) is “active”. For the same molecule, the growth inhibition call in the test on S. aureus RN4220 was “inactive”.

With `C[C@@H]1CN([C@H](C)CO)C(=O)c2cc(NC(=O)NC3CCCCC3)ccc2O[C@@H](C)CCCCO[C@H]1CN(C)Cc1ccccc1`, the cytotoxicity call in the test with HSkMC was “inactive”. Also, the growth inhibition call with S. aureus RN4220 is “inactive”.

On to `C[C@H]1CCCCO[C@@H](CN(C)C(=O)Nc2ccc(C(F)(F)F)cc2)[C@@H](C)CN([C@@H](C)CO)C(=O)c2cc(NS(=O)(=O)c3cccs3)ccc2O1`, for which the cytotoxicity call with HSkMC is “inactive”. The growth inhibition call with S. aureus RN4220 is “inactive”.

As for `Nc1ncnc2c([C@@H]3N[C@H](CO)[C@@H](O)[C@H]3O)c[nH]c12`, the cytotoxicity call in the test with HSkMC was “inactive”. Moreover, the growth inhibition call in the test on S. aureus RN4220 was “inactive”.

Consider `COc1ccc(C#Cc2ccc3c(c2)[C@]2(C(=O)N3)[C@H](c3ccc(OCCO)cc3)N3[C@H](c4ccccc4)[C@H](c4ccccc4)OC(=O)[C@H]3[C@@H]2C(=O)N2CCN(c3ncccn3)CC2)cc1`, for which the cytotoxicity call in the test with HSkMC is “inactive”. For the same molecule, the growth inhibition call in the test on S. aureus RN4220 was “inactive”.
